Results on 112 molecules are retold here after PubChem BioAssay AID488969 (Vanderbilt High Throughput Screening Facility, 2010).

Over roughly 110,000 compounds, “z-score” has its median near -0.1; the highest 2% begin near 2. Some of the results follow. Active and inactive are the calls of the source.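 How the source made its calls: active means z-score in the third read window above 3 or below -3; inactive means the rest.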

In the assay the target is Metabotropic glutamate receptor 8 (Rattus norvegicus) (UniProt P70579). Put plainly: rat mGluR8 modulators via GIRK flux, primary screen, cell-based, thallium flux, HTS (AID 488969). As to conditions: HEK293 rat mGluR8, GIRK (G protein-gated inwardly rectifying potassium channel) thallium flux, FluoZin2; at 10 µM; stronger effect = higher value; submaximal glutamate (EC20) added with thallium.
UniProt P70579, sequence (P70579 whole entry, looked up): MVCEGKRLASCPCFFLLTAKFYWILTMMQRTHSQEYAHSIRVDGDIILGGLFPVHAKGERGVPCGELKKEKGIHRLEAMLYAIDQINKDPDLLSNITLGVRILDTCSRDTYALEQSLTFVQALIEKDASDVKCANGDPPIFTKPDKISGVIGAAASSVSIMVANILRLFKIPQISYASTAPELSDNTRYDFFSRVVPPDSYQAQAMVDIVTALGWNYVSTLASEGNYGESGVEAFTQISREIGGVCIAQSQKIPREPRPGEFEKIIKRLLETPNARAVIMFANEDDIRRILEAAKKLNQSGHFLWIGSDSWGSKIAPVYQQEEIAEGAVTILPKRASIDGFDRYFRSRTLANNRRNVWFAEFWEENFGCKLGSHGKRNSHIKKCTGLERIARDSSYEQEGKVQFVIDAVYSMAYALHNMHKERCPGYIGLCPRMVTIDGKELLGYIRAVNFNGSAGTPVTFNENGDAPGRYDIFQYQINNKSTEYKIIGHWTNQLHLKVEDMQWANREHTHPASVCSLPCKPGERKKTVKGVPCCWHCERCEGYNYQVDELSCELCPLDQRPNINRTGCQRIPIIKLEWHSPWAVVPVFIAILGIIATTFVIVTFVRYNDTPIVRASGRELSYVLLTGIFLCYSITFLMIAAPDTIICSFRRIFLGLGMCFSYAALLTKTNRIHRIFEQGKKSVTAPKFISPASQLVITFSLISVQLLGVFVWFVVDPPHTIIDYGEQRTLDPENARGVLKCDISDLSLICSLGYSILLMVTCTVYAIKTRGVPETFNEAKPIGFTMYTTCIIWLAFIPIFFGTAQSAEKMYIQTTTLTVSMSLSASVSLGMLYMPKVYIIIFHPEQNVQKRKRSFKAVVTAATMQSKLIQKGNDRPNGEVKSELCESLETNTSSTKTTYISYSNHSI
In turn, `O=S(=O)(c1ccc2c(c1)OCCO2)N1CCN(Cc2ccc3c(c2)OCO3)CC1` yielded a z-score of -0.0889.

With `Cc1cc(CSc2ccccc2)ccc1NC(=O)c1ccc(Br)cc1`, the z-score was found to be 0.213.

`COC(=O)C1(C)Nc2ccccc2C(=O)N1c1ccccc1C` (configuration not stated) came in with a z-score of 0.875.

Molecule `Cc1cccc(NC(=S)NCc2ccco2)c1C` returned a z-score of -0.0634.

Turning to `CCN(CC)CCN1C(=O)c2oc3ccccc3c(=O)c2C1c1ccccc1` (configuration not stated), the z-score was active: 3.81.

As to `CCOC(=O)CSc1nc(N)c(C#N)c(-c2cccs2)c1C#N`, the z-score stood at 0.202.

In turn, `CCC(CC)NC(=O)c1ccccc1Oc1ccccc1` had a z-score of -0.739.

`COCCCNC(=O)c1ccc(N(C)S(C)(=O)=O)cc1` returned a z-score of 0.0312.

`O=C(Cc1c[nH]c2ccccc12)N/N=C/c1cccc(F)c1` came in with a z-score of -0.285.

As for `O=c1oc2ccccc2nc1/C=C(O)/C=C\c1ccccc1`, the z-score was -0.0618.

Regarding `CCCCN(CCCC)CP(=O)(c1ccccc1)c1ccccc1`, the z-score stood at 1.14.

In the case of `Cc1cccc(CC2CC(=O)N(C3CCCCC3)C2=O)c1` (configuration not stated), the z-score stood at 0.249.

For the molecule `COc1ccc(S(=O)(=O)n2cnc3cc(C)c(C)cc32)cc1C`, the z-score came to 0.00762.

Molecule `CCCNC(=S)NC1CC2CCC(C1)N2Cc1ccccc1` (configuration not stated) had a z-score of -0.0426.

Regarding `COCCNC(=O)C(C)N1c2cccc3cccc(c23)S1(=O)=O` (configuration not stated), the z-score is -0.117.

Consider `Cc1cc(C)nc(NS(=O)(=O)c2ccc(NC(=S)NC(=O)C(C)C)cc2)n1`, for which the z-score is -0.0841.

Molecule `Cc1ccc(OCC(=O)N/N=C/c2cn[nH]c2-c2ccc(Cl)c(Cl)c2)cc1` had a z-score of 0.00282.

In turn, `Cc1ccc(NC(=O)COC(=O)CNC(=O)c2ccc3ccccc3c2)c([N+](=O)[O-])c1` registered a z-score of -0.387.

`O=C1C(Cl)=C(NCCc2ccccc2)C(=O)N1CCc1ccccc1` registered a z-score of -0.229.

The molecule `COc1ccc(-n2cc(C(=O)O)c3ccccc3c2=O)cc1` registered a z-score of 2.28.

Consider `CC1=C(C(=O)NC2CCCC(C)C2C)C2(CCCCC2)OC1=O` (configuration not stated), for which the z-score is -0.124.

`O=C(CCCc1nc2ccccc2s1)Nc1nccs1`: the z-score was -1.01.

In the case of `Cc1ccc(CSc2ccc(-c3cccs3)nn2)cc1`, the z-score is -0.133.

Regarding `COCCCN1C(=O)c2ccccc2C1C(=O)NC1CCCCCC1` (configuration not stated), the z-score was found to be 0.0327.

On to `Cc1oc(CSCC2CCCO2)cc1C(=O)O` (configuration not stated), for which the z-score turned out to be 0.173.

Molecule `O=C(OCC(=O)c1c[nH]c2ccccc12)c1cc2ccccc2cc1O` displayed a z-score of -0.0971.

The molecule `O=[N+]([O-])c1cccc(C2Nc3cccc4cccc(c34)N2)c1` had a z-score of -0.0194.

Molecule `COc1ccc(N(CC(=O)NC2CCCCCC2)S(=O)(=O)c2c(C)nn(C)c2C)cc1` registered a z-score of 0.268.

In the case of `Nc1cc2sc(-c3ccc(C(=O)O)cc3)nc2cc1Cl`, the z-score is -0.21.

Turning to `Cc1ccc2c(n1)sc1c(-c3ccc(Br)cc3)c(C#N)c(N)nc12`, the z-score is -0.164.

In the case of `CC1(C)CC(=O)C2=C(C1)OC(N)=C(C#N)C21CCC2(CC1)OCCO2`, the z-score was -0.25.

On to `CC1=C(C(=O)OC(C)C)C(c2ccncc2)n2ncnc2N1` (configuration not stated), for which the z-score is -0.572.

With `CCOC(=O)N1CCN(C2CC(=O)N(c3ccc(Oc4ccccc4)cc3)C2=O)CC1` (configuration not stated), the z-score worked out at 0.281.

`C=CCNc1nnc(SC2CC(=O)N(c3ccc(OC)cc3)C2=O)s1` (configuration not stated) came in with a z-score of 0.794.

Molecule `COc1cccc(NC(=O)CSc2nnc(-c3cc(C)n(-c4ccccc4)c3C)o2)c1` displayed a z-score of -0.0485.

With `CCCCCNC(=O)CN(c1ccc2c(c1)OCO2)S(C)(=O)=O`, the z-score was -0.303.

For the molecule `CCSc1ccccc1C(=O)Nc1cccnc1`, the z-score was active: -3.72.

For `Cc1ccccc1N1C(=O)C(Oc2ccc(Cl)cc2)C1CNCCCOC(C)C` (configuration not stated), the z-score is 2.95.

As for `CC(C)[C@H](NC(=O)OCc1ccccc1)C(=O)OCC(=O)NC1CCCCC1`, the z-score is -0.184.

Regarding `O=C(CCC(=O)N1CCc2ccccc21)Nc1ccccc1`, the z-score was found to be 0.0615.

Molecule `O=C(NCC(c1cccnc1)N1CCN(c2ccccc2)CC1)OCc1ccccc1` (configuration not stated) registered a z-score of -0.479.

Molecule `Cc1cc(C)c(S(=O)(=O)N2CCCCC2)c(C)c1-n1ncnn1` came in with a z-score of 0.237.

For `COc1ccc(NC(=O)C2CCN(c3cc(C)nc(-c4ccccc4)n3)CC2)cc1`, the z-score is -0.351.

On to `Cc1ccccc1C(=O)Nc1nncs1`, for which the z-score was -0.0319.

`COC(=O)c1sc(S(=O)(=O)N2CCC(C(N)=O)CC2)c(C(=O)OC)c1C`: the z-score was -0.0642.

`COc1ccc(N(C(=O)c2cccc(OC)c2OC)C2C=CS(=O)(=O)C2)cc1` (configuration not stated) gave a z-score of -0.0517.

`c1ccc(-c2nc(N3CCOCC3)c3ccccc3n2)nc1` yielded a z-score of 0.178.

In turn, `O=C(CCn1nc(-c2ccc(Cl)cc2)ccc1=O)NCc1cccnc1` had a z-score of -0.0692.

Consider `CN(C)c1ccnc(SCc2ccccc2Cl)c1C#N`, for which the z-score was 0.0449.

As for `Cc1ccc(/C(O)=C2\C(=O)C(=O)N(CC(C)O)C2c2ccc(N(C)C)cc2)cc1` (configuration not stated), the z-score is -0.0674.

`CN(C)CC(=O)Nc1ccc(S(N)(=O)=O)cc1` yielded a z-score of 0.088.

In turn, `FC(F)(F)c1nc(-c2cccs2)ncc1-c1nnnn1-c1ccc(Cl)cc1` returned a z-score of -0.147.

In turn, `COc1ccc(Cl)cc1NC(=O)/C=C\C(=O)O` had a z-score of -0.076.

The molecule `CC(=O)c1cccc(NC(=O)CSC(=O)c2ccccc2)c1` displayed a z-score of 0.0943.

Regarding `N#Cc1ccc(Oc2ccc(-c3nc4ccccc4nc3-c3ccccc3)cc2)cc1C#N`, the z-score amounted to 0.135.

As for `Cc1onc(-c2c(F)cccc2Cl)c1C(=O)Nc1nc2ccccc2[nH]1`, the z-score is -0.188.

On to `O=C(C1CCCN1S(=O)(=O)c1cccc2cccnc12)N1CCc2ccccc21` (configuration not stated), for which the z-score is 2.97.

For the molecule `CCN(CC)C(=O)COc1ccc(-c2nnc(N3CCCCC3)c3ccccc23)cc1`, the z-score is -1.21.

For `CCCn1c(=NC(=O)c2ccco2)c(C(=O)OCC)cc2c(=O)n3ccccc3nc21`, the z-score was -0.278.

Molecule `CC(C)Sc1nc2c(c(=O)[nH]c(=O)n2C)n1Cc1ccc(Cl)cc1` yielded a z-score of -0.372.

`COCCNCCOc1ccccc1-c1ccccc1`: the z-score is active: 3.67.

Take `CC(=O)c1cccc(NC(=O)c2cc(-c3ccc(C)cc3)on2)c1`: the z-score was found to be 0.209.

With `Cc1ncc(S(=O)(=O)c2ccc(Cl)cc2)c(-c2ccccc2)n1`, the z-score was -0.0458.

For `COc1ccc(N2CCN(C(=O)CN3C(=O)c4ccccc4S3(=O)=O)CC2)cc1`, the z-score is -0.593.

`CCC(CC)C(=O)N1CC(=O)Nc2ccc(Br)cc2C1c1ccccc1` (configuration not stated) displayed a z-score of -0.895.

As to `O=C(NC(=S)NCCN1CCOCC1)c1ccccc1Cl`, the z-score is -0.177.

Take `Cc1ccc(C(=O)Oc2cccc(NC(=O)c3ccco3)c2)cc1S(=O)(=O)N1CCC(C)CC1`: the z-score is -0.231.

Turning to `COC(=O)CN1C(=S)N(c2ccc(Cl)cc2)C(=O)C1CC(=O)Nc1ccccc1` (configuration not stated), the z-score is -0.188.

Take `O=C(c1ccc(COc2c(F)c(F)c(F)c(F)c2F)o1)N1CCN(Cc2ccc3c(c2)OCO3)CC1`: the z-score amounted to 0.171.

Take `Cc1ccc(C(=O)N/C(=C\c2sccc2C)C(=O)NCc2ccncc2)cc1`: the z-score worked out at 0.317.

With `Fc1ccc(CNC(=S)Nc2cccc(Cl)c2)cc1`, the z-score is active: 5.18.

`CN(Cc1cc(=O)n2ccsc2n1)c1ccccc1` yielded a z-score of 0.269.

Consider `Cc1cc(C(=O)CSc2n[nH]c(N)n2)c(C)n1-c1cccc(F)c1`, for which the z-score is -1.69.

Regarding `CC1CN/C(=C\C(=O)c2ccccc2)C(=O)N1` (configuration not stated), the z-score is -0.329.

`CNc1cc([N+](=O)[O-])ccc1N/C=C/C(=O)c1cccs1` gave a z-score of -0.398.

The molecule `Cc1nc(S(=O)(=O)c2cccc(Cl)c2)nc2c1CCC2` registered a z-score of -0.17.

`CC(C)(C)c1cc(C(=O)NCc2ccco2)ccn1` came in with a z-score of 1.2.

`CN(C)CCCNc1ncnc2c1cnn2-c1ccccc1` registered a z-score of 0.0262.

As for `CC(C)C(=O)Nc1cc(=O)[nH]c2ncnn12`, the z-score worked out at 0.254.

Take `CCCc1nc(SCC(=O)c2ccccc2)c2c(=O)n(C)c(=O)n(C)c2n1`: the z-score was 0.819.

The molecule `CC(=O)c1cccc(N/C=C\c2nnnn2-c2ccc(F)cc2)c1` returned a z-score of -0.335.

`Cc1c(/C=C/C(=O)c2cccs2)cnn1C` came in with a z-score of 0.118.

`C=CCNC(=O)/C(C#N)=C/c1c(C)nn(-c2ccc(Cl)cc2)c1Cl`: the z-score is -0.224.

As to `Cc1ccc2nc(SCC(=O)N3CCOCC3)[nH]c2c1`, the z-score was 0.844.

In turn, `CCn1nc(NC(=O)c2ccncc2)c2cc3ccccc3nc21` displayed a z-score of -0.219.

Molecule `Cn1c(C(=O)N2CCCc3ccccc32)cc2c(=O)n3ccccc3nc21` displayed a z-score of -1.01.

Molecule `COCc1cc(/C=N\NC(=O)Cc2ccc(Cl)cc2)ccc1OC` showed a z-score of -0.253.

The molecule `O=C(Nc1ccc(Cl)cc1)OCc1ccccn1` registered a z-score of 0.0566.

Regarding `O=C(Nc1ccccc1N1CCOCC1)C1CCN(S(=O)(=O)c2ccc(F)cc2)CC1`, the z-score amounted to 0.553.

Take `O=C(CSc1nc2ccccc2s1)NCc1ccc2c(c1)OCO2`: the z-score was determined as 0.397.

The molecule `O=C(NCc1ccc(F)cc1)c1cccc(S(=O)(=O)N2CCCC2)c1` yielded a z-score of 0.497.

`O=C(/C=C/c1ccco1)NC(=S)Nc1cccc(-c2nc3ccccc3o2)c1` returned a z-score of 0.276.

Turning to `COc1ccc(C)cc1S(=O)(=O)NC1CCCC1`, the z-score was -0.216.

Turning to `Cc1occc1-c1nnc(SCC(=O)c2c[nH]c3ccccc23)n1C`, the z-score is -0.0265.

As to `O=C(C[n+]1cc(-c2ccccc2)n2c1CCC2)N1c2ccccc2Sc2ccccc21`, the z-score was -0.288.

`O=S(=O)(c1ccc(-c2csc(=Nc3ccccc3)n2CCCN2CCOCC2)cc1)N1CCOCC1` displayed a z-score of -0.35.

On to `COc1cccc(CNC(=O)CSCc2cnn(-c3ccccc3)c2-n2cccc2)c1`, for which the z-score stood at 0.118.

Consider `C=CCNC(=O)CCCOc1cc(C)ccc1C`, for which the z-score came to 0.0352.

For the molecule `CC(C)n1c(SCC(N)=O)nc2c1c(=O)n(C)c(=O)n2C`, the z-score is -0.0906.

`O=c1[nH]c(C(F)(F)F)nc2ccccc12` came in with a z-score of -0.11.

`Cc1ccc(NC(=O)Cc2ccc([N+](=O)[O-])cc2)c(Br)c1` came in with a z-score of 0.513.

In turn, `Cc1ccc2c(c1)c1c(n2CC(O)Cn2c(C)nc3ccccc32)CCCC1` (configuration not stated) displayed a z-score of -0.427.

As for `COc1ccc(OCC(=O)N2CCN(C(=O)c3ccco3)CC2)cc1`, the z-score was determined as 0.0762.

With `S=C(NCCN1CCOCC1)Nc1ccc(Cl)cc1Cl`, the z-score was -1.12.

Take `Cc1ccc(C2C3=C(CC(C)(C)CC3=O)Nc3onc(C)c32)cc1` (configuration not stated): the z-score came out at 0.00867.

Turning to `COc1ccccc1N1CCN(C(=O)Cn2nc(C(F)(F)F)c3c2CCC3)CC1`, the z-score was 0.25.

Molecule `CCOC(=O)CCc1c(C)c2ccc(OCC(=O)OC(C)C)cc2oc1=O` had a z-score of 0.293.

`COc1ccc(-c2noc(CN3CCN(c4ccccc4F)CC3)n2)cc1OC` came in with a z-score of -0.343.

The molecule `c1cc(-c2noc(-c3ccc4c(c3)OCO4)n2)ccn1` had a z-score of -0.241.

On to `O=C(Nc1c(C(=O)NCc2ccco2)cnn1-c1ccccc1)c1ccc(F)cc1`, for which the z-score was -2.63.

For the molecule `CN1CCN(CC(=O)Nc2cc(N3CCOCC3)ccc2[N+](=O)[O-])CC1`, the z-score was -0.389.

In the case of `CCOc1ccc(N=C(NN)c2ccc3ccccc3n2)cc1`, the z-score was -0.116.
